The labels stand for the following.
B1: UUUGGAC (DNA:RNA)
RNA: GGGAGACCGGAAUUCAGAUUGUCCUUUGGACUUAAAUCCCGUCGUAGCCACCA
DNA 1: CAATCTGAATTCCGGTCTCCC
DNA 2: TGGTGGCTACGACGGGATT
B2: AAGCAUG (DNA:RNA)
RNA: GGGAGACCGGAAUUCAGAUUGUCCAAGCAUGUUAAAUCCCGUCGUAGCCACCA
DNA 1: CAATCTGAATTCCGGTCTCCC
DNA 2: TGGTGGCTACGACGGGATT
B3: ACGGUCC (DNA:RNA)
RNA: B2 RNA with A26C, C28G, A29U, U30C, G31C
DNA 1: CAATCTGAATTCCGGTCTCCC
DNA 2: TGGTGGCTACGACGGGATT
B4: CGUGGCC (DNA:RNA)
RNA: B1 RNA with U25C, U26G, A30C
DNA 1: CAATCTGAATTCCGGTCTCCC
DNA 2: TGGTGGCTACGACGGGATT
B5: GUCCGUC (DNA:RNA)
RNA: B1 RNA with U25G, U27C, G28C, A30U
DNA 1: CAATCTGAATTCCGGTCTCCC
DNA 2: TGGTGGCTACGACGGGATT
B6: GCUGACU (DNA:RNA)
RNA: B1 RNA with U25G, U26C, G29A, A30C, C31U
DNA 1: CAATCTGAATTCCGGTCTCCC
DNA 2: TGGTGGCTACGACGGGATT
B7: AAUUUAU (DNA:RNA)
RNA: B2 RNA with G27U, C28U, A29U, U30A, G31U
DNA 1: CAATCTGAATTCCGGTCTCCC
DNA 2: TGGTGGCTACGACGGGATT
B8: UCAGGUU (DNA:RNA)
RNA: B1 RNA with U26C, U27A, A30U, C31U
DNA 1: CAATCTGAATTCCGGTCTCCC
DNA 2: TGGTGGCTACGACGGGATT
B9: AUGACGU (DNA:RNA)
RNA: B2 RNA with A26U, C28A, A29C, U30G, G31U
DNA 1: CAATCTGAATTCCGGTCTCCC
DNA 2: TGGTGGCTACGACGGGATT

Nine molecules from PMC9911399, “Two distinct binding modes provide the RNA-binding protein RbFox with extraordinary sequence specificity” can be followed below.

Numbering of substitutions follows the chain as printed; changes in the protein carry UniProt numbers. The list shows a part of the results.

The target in this assay is T1, RBFOX1 RRM RbFoxmut (Fox-RRM*) (Homo sapiens, UniProt Q9NWB1 109-208, R118D;E147R;N151S;E152T).
T1 sequence: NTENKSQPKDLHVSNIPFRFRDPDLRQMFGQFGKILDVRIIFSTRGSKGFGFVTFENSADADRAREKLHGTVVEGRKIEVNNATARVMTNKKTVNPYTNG
The assay can be described thus: EMSA; HiTS-Eq, 1 nM pool, 10 min; buffer printed only for the single-RNA assays: 10 mM Tris pH 7.5, 150 mM NaCl, 3.4 mM EDTA, 0.001% NP-40, 30 C. Conditions: tags: His6 N-terminal (pET28a); label: 5' 32P. In short, it runs like this:
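A pool of RNA with 7 randomized nucleotides, 5′-radiolabelled and with DNA-annealed flanks, was equilibrated at 1 nM for 10 min in 50 µL with purified RbFox RRM, wild type or mutant, across increasing protein concentrations. Free RNA was separated by 8% native PAGE, excised, reverse-transcribed, barcoded by PCR and sequenced. Relative association constants were obtained from read-count changes of each RNA species versus the control reaction and normalised to the cognate motif.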
On the technique in general: In EMSA bound probe runs differently from free probe, usually more slowly.
Consider B1, for which the binding signal is 0.052 KA relative to UGCAUGU.

Regarding B2, the binding signal is 0.715 KA relative to UGCAUGU.

Turning to B3, the binding signal was 0.0923 KA relative to UGCAUGU.

For the molecule B4, the binding signal is 0.275 KA relative to UGCAUGU.

As to B5, the binding signal was 0.0864 KA relative to UGCAUGU.

On to B6, for which the binding signal was 0.0786 KA relative to UGCAUGU.

For the molecule B7, the binding signal is 0.117 KA relative to UGCAUGU.

Regarding B8, the binding signal is 0.0956 KA relative to UGCAUGU.

As to B9, the binding signal is 0.0869 KA relative to UGCAUGU.
